From the supplement of paper PMC4784398
Repeats are few or missing, and single values can be far off.

Experiments:
Test in all cases: relative growth (AUC) vs no-drug reference well (fraction change); higher = more growth
EV = tested on: EV
Protocol: (§1)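 S. cerevisiae BY4741 carrying a CRISPRi gRNA plasmid or empty vector, with or without ATc, grown in 100 µl CSM-Ura in 96-well plates at 30 °C. OD600 was read about every 15 min; baseline-corrected AUC gave relative growth = (AUC - AUC reference well)/AUC reference, the reference being the no-drug well. Single wells over a dilution series of the drug.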

P9-CRG1 = tested on: P9-CRG1
Protocol: as §1

P9-CRG1+ATC = tested on: P9-CRG1+ATC
Protocol: as §1

EV+ATC = tested on: EV+ATC
Protocol: as §1

ERG11 = tested on: ERG11
Protocol: as §1

ERG11 + ATC = tested on: ERG11 + ATC
Protocol: as §1

EV + ATC = tested on: EV + ATC
Protocol: as §1

C[C@@]12C(=O)OC(=O)[C@]1(C)[C@H]1CC[C@@H]2O1 [Cantharidin]
relative growth
Settings	EV	EV+ATC	P9-CRG1	P9-CRG1+ATC
0.5 µM	0.0198	0.01	0.0167	-0.0174
0.624 µM	0.027	0.0214	0.0315	-0.0218
0.8 µM	0.0216	0.0158	0.0398	-0.0241
0.96 µM	0.0397	0.0227	0.0264	-0.0545
1.2 µM	0.0274	0.0194	0.0154	-0.103
1.52 µM	0.0411	0.0266	0.0004	-0.13
1.92 µM	0.0372	0.0275	-0.0655	-0.276
2.4 µM	0.0335	0.0367	-0.0233	-0.367
3.2 µM	0.0187	0.015	-0.0277	-0.396
4.32 µM	0.0226	0.0239	-0.0396	-0.533
5.76 µM	-0.0207	0.0029	-0.0929	-0.632
7.76 µM	-0.0589	-0.0458	-0.206	-0.774
10.4 µM	-0.0921	-0.0742	-0.275	-0.836
13.92 µM	-0.156	-0.132	-0.422	-0.906
18.64 µM	-0.213	-0.187	-0.494	-0.928
24.96 µM	-0.324	-0.293	-0.583	-0.932
33.44 µM	-0.426	-0.382	-0.777	-0.931
44.88 µM	-0.584	-0.527	-0.825	-0.955
60.16 µM	-0.707	-0.696	-0.919	-0.977
76.72 µM	-0.808	-0.777	-0.972	-0.993
97.92 µM	-0.877	-0.849	-0.988	-0.997
125.04 µM	-0.956	-0.937	-0.998	-0.998

OC(Cn1cncn1)(Cn1cncn1)c1ccc(F)cc1F [Fluconazole]
relative growth
Settings	ERG11	ERG11 + ATC	EV	EV + ATC
1 µM	0.0828	0.126	0.032	0.101
1.48 µM	0.157	0.03	0.016	0.0851
2.24 µM	0.0751	0.0786	0.0324	0.0853
3.36 µM	0.0355	0.108	0.0593	0.0792
5.04 µM	0.062	0.0974	0.058	0.0683
5.88 µM	0.0726	0.0587	0.0683	0.0759
6.88 µM	-0.0293	-0.1	0.0414	0.0656
8 µM	0.0181	-0.0209	0.0659	0.0613
9.36 µM	0.103	-0.199	0.0418	0.0218
10.92 µM	0.0835	-0.194	0.034	0.0189
12.72 µM	-0.0223	-0.196	-0.0217	-0.0212
14.8 µM	-0.0683	-0.398	0.118	0.119
17.28 µM	0.075	-0.443	0.101	0.107
20.16 µM	-0.0179	-0.555	0.0602	0.0543
23.48 µM	-0.0145	-0.748	0.0298	0.0372
27.4 µM	-0.0543	-0.818	-0.0296	-0.0464
31.92 µM	-0.0166	-0.857	-0.111	-0.102
37.24 µM	-0.108	-0.889	-0.238	-0.218
43.4 µM	-0.236	-0.912	-0.348	-0.32
50.6 µM	-0.473	-0.919	-0.522	-0.489
71.12 µM	-0.873	-0.945	-0.712	-0.574
100 µM	-0.916	-0.938	-0.743	-0.721
